In the supplement of paper PMC8728848:
This is one part of the list.

Assays:
Assay in all cases: glycan array binding signal (z-score within array); higher = stronger binding
Details in all cases: glycan notation: IUPAC condensed, linker removed
[1] = molecular target: Man(a1-3)[Man(a1-6)]Man(a1-6)[Man(a1-3)]Man
Method in brief: (§1)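 Glycan array data were curated from 3228 arrays in the Consortium for Functional Glycomics database and kept only where the protein sequence was available. Glycan names were converted to IUPAC-condensed notation, and columns mapping to the same glycan were averaged. The binding signal is a within-array Z-score, averaged across arrays of the same protein sequence at different concentrations or buffers and across linkers. Negative Z-scores can be read as non-binding.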

[2] = molecular target: Man(a1-3)[Man(a1-6)]Man(a1-6)[Man(a1-3)]Man(b1-4)GlcNAc(b1-4)GlcNAc
Method in brief: as §1

[3] = molecular target: Man(a1-3)[Man(a1-6)]Man(b1-4)GlcNAc(b1-4)GlcNAc
Method in brief: as §1

Man(a1-6)Man = molecular target: Man(a1-6)Man
Method in brief: as §1

Man(b1-4)GlcNAc = molecular target: Man(b1-4)GlcNAc
Method in brief: as §1

Neu5Ac(a2-3)Gal = molecular target: Neu5Ac(a2-3)Gal
Method in brief: as §1

[4] = molecular target: Neu5Ac(a2-3)Gal(b1-3)GalNAc
Method in brief: as §1

[5] = molecular target: Neu5Ac(a2-3)Gal(b1-3)GalNAc(b1-3)Gal(a1-4)Gal(b1-4)Glc
Method in brief: as §1

[6] = molecular target: Neu5Ac(a2-3)Gal(b1-3)GalNAc(b1-3)Gal(b1-4)GlcNAc
Method in brief: as §1

[7] = molecular target: Neu5Ac(a2-3)Gal(b1-3)GalNAc(b1-4)[Neu5Ac(a2-3)]Gal(b1-4)Glc
Method in brief: as §1

[8] = molecular target: Neu5Ac(a2-3)Gal(b1-3)GalNAc6S
Method in brief: as §1

[9] = molecular target: Neu5Ac(a2-3)Gal(b1-3)GlcNAc
Method in brief: as §1

[10] = molecular target: Neu5Ac(a2-3)Gal(b1-3)GlcNAc(b1-3)Gal(b1-3)GlcNAc
Method in brief: as §1

[11] = molecular target: Neu5Ac(a2-3)Gal(b1-3)GlcNAc6S
Method in brief: as §1

[12] = molecular target: Neu5Ac(a2-3)Gal(b1-3)[Fuc(a1-4)]GlcNAc
Method in brief: as §1

[13] = molecular target: Neu5Ac(a2-3)Gal(b1-3)[Fuc(a1-4)]GlcNAc(b1-3)Gal(b1-4)[Fuc(a1-3)]GlcNAc
Method in brief: as §1

[14] = molecular target: Neu5Ac(a2-3)Gal(b1-3)[Neu5Ac(a2-3)Gal(b1-4)]GlcNAc
Method in brief: as §1

[15] = molecular target: Neu5Ac(a2-3)Gal(b1-3)[Neu5Ac(a2-6)]GalNAc
Method in brief: as §1

Neu5Ac(a2-3)Gal(b1-4)Glc = molecular target: Neu5Ac(a2-3)Gal(b1-4)Glc
Method in brief: as §1

[16] = molecular target: Neu5Ac(a2-3)Gal(b1-4)GlcNAc
Method in brief: as §1

[17] = molecular target: Neu5Ac(a2-3)Gal(b1-4)GlcNAc(b1-2)Man(a1-3)[GlcNAc(b1-2)Man(b1-4)GlcNAc(b1-2)Man(a1-6)]Man(b1-4)GlcNAc(b1-4)GlcNAc
Method in brief: as §1

[18] = molecular target: Neu5Ac(a2-3)Gal(b1-4)GlcNAc(b1-2)Man(a1-3)[Neu5Ac(a2-6)Gal(b1-4)GlcNAc(b1-2)Man(a1-6)]Man(b1-4)GlcNAc(b1-4)GlcNAc
Method in brief: as §1

[19] = molecular target: Neu5Ac(a2-3)Gal(b1-4)GlcNAc(b1-3)Gal(b1-3)GlcNAc
Method in brief: as §1

[20] = molecular target: Neu5Ac(a2-3)Gal(b1-4)GlcNAc(b1-3)Gal(b1-4)GlcNAc
Method in brief: as §1

[21] = molecular target: Neu5Ac(a2-3)Gal(b1-4)GlcNAc(b1-3)Gal(b1-4)GlcNAc(b1-3)Gal(b1-4)GlcNAc
Method in brief: as §1

[22] = molecular target: Neu5Ac(a2-3)Gal(b1-4)GlcNAc(b1-3)Gal(b1-4)[Fuc(a1-3)]GlcNAc
Method in brief: as §1

[23] = molecular target: Neu5Ac(a2-3)Gal(b1-4)GlcNAc(b1-6)[Gal(b1-3)]GalNAc
Method in brief: as §1

[24] = molecular target: Neu5Ac(a2-3)Gal(b1-4)GlcNAc(b1-6)[Neu5Ac(a2-3)Gal(b1-3)]GalNAc
Method in brief: as §1

[25] = molecular target: Neu5Ac(a2-3)Gal(b1-4)GlcNAc6S
Method in brief: as §1

[26] = molecular target: Neu5Ac(a2-3)Gal(b1-4)[Fuc(a1-3)]GlcNAc
Method in brief: as §1

[27] = molecular target: Neu5Ac(a2-3)Gal(b1-4)[Fuc(a1-3)]GlcNAc(b1-3)Gal
Method in brief: as §1

[28] = molecular target: Neu5Ac(a2-3)Gal(b1-4)[Fuc(a1-3)]GlcNAc(b1-3)Gal(b1-4)GlcNAc
Method in brief: as §1

[29] = molecular target: Neu5Ac(a2-3)Gal(b1-4)[Fuc(a1-3)]GlcNAc(b1-3)Gal(b1-4)[Fuc(a1-3)]GlcNAc(b1-3)Gal(b1-4)[Fuc(a1-3)]GlcNAc
Method in brief: as §1

[30] = molecular target: Neu5Ac(a2-3)Gal(b1-4)[Fuc(a1-3)]GlcNAc(b1-6)[Gal(b1-3)]GalNAc
Method in brief: as §1

[31] = molecular target: Neu5Ac(a2-3)Gal(b1-4)[Fuc(a1-3)]GlcNAc6S
Method in brief: as §1

[32] = molecular target: Neu5Ac(a2-3)Gal6S(b1-4)GlcNAc
Method in brief: as §1

[33] = molecular target: Neu5Ac(a2-3)Gal6S(b1-4)[Fuc(a1-3)]GlcNAc
Method in brief: as §1

Neu5Ac(a2-3)GalNAc = molecular target: Neu5Ac(a2-3)GalNAc
Method in brief: as §1

[34] = molecular target: Neu5Ac(a2-3)GalNAc(b1-4)GlcNAc
Method in brief: as §1

[35] = molecular target: Neu5Ac(a2-3)[GalNAc(b1-4)]Gal(b1-4)Glc
Method in brief: as §1

[36] = molecular target: Neu5Ac(a2-3)[GalNAc(b1-4)]Gal(b1-4)GlcNAc
Method in brief: as §1

[37] = molecular target: Neu5Ac(a2-3)[Neu5Ac(a2-6)]GalNAc
Method in brief: as §1

Neu5Ac(a2-6)Gal = molecular target: Neu5Ac(a2-6)Gal
Method in brief: as §1

Neu5Ac(a2-6)Gal(b1-4)Glc = molecular target: Neu5Ac(a2-6)Gal(b1-4)Glc
Method in brief: as §1

[38] = molecular target: Neu5Ac(a2-6)Gal(b1-4)GlcNAc
Method in brief: as §1

B1: Factor H (Homo sapiens), P08603 (protein)
chain: MRLLAKIICLMLWAICVAEDCNELPPRRNTEILTGSWSDQTYPEGTQAIYKCRPGYRSLGNVIMVCRKGEWVALNPLRKCQKRPCGHPGDTPFGTFTLTGGNVFEYGVKAVYTCNEGYQLLGEINYRECDTDGWTNDIPICEVVKCLPVTAPENGKIVSSAMEPDREYHFGQAVRFVCNSGYKIEGDEEMHCSDDGFWSKEKPKCVEISCKSPDVINGSPISQKIIYKENERFQYKCNMGYEYSERGDAVCTESGWRPLPSCEEKSCDNPYIPNGDYSPLRIKHRTGDEITYQCRNGFYPATRGNTAKCTSTGWIPAPRCTLKPCDYPDIKHGGLYHENMRRPYFPVAVGKYYSYYCDEHFETPSGSYWDHIHCTQDGWSPAVPCLRKCYFPYLENGYNQNYGRKFVQGKSIDVACHPGYALPKAQTTVTCMENGWSPTPRCIRVKTCSKSSIDIENGFISESQYTYALKEKAKYQCKLGYVTADGETSGSITCGKDGWSAQPTCIKSCDIPVFMNARTKNDFTWFKLNDTLDYECHDGYESNTGSTTGSIVCGYNGWSDLPICYERECELPKIDVHLVPDRKKDQYKVGEVLKFSCKPGFTIVGPNSVQCYHFGLSPDLPICKEQVQSCGPPPELLNGNVKEKTKEEYGHSEVVEYYCNPRFLMKGPNKIQCVDGEWTTLPVCIVEESTCGDIPELEHGWAQLSSPPYYYGDSVEFNCSESFTMIGHRSITCIHGVWTQLPQCVAIDKLKKCKSSNLIILEEHLKNKKEFDHNSNIRYRCRGKEGWIHTVCINGRWDPEVNCSMAQIQLCPPPPQIPNSHNMTTTLNYRDGEKVSVLCQENYLIQEGEEITCKDGRWQSIPLCVEKIPCSQPPQIEHGTINSSRSSQESYAHGTKLSYTCEGGFRISEENETTCYMGKWSSPPQCEGLPCKSPPEISHGVVAHMSDSYQYGEEVTYKCFEGFGIDGPAIAKCLGEKWSHPPSCIKTDCLSLPSFENAIPMGEKKDVYKAGEQVTYTCATYYKMDGASNVTCINSRWTGRPTCRDTSCVNPPTVQNAYIVSRQMSKYPSGERVRYQCRSPYEMFGDEEVMCLNGNWTEPPQCKDSTGKCGPPPPIDNGDITSFPLSVYAPASSVEYQCQNLYQLEGNKRITCRNGQWSEPPKCLHPCVISREIMENYNIALRWTAKQKLYSRTGESVEFVCKRGYRLSSRSHTLRTTCWDGKLEYPTCAKR
glycan array binding signal (z-score) [1]: -0.337 | glycan array binding signal (z-score) [2]: -0.43 | glycan array binding signal (z-score) [3]: -0.709 | glycan array binding signal (z-score) (Man(a1-6)Man): -0.725 | glycan array binding signal (z-score) (Man(b1-4)GlcNAc): -0.282 | glycan array binding signal (z-score) (Neu5Ac(a2-3)Gal): -0.391 | glycan array binding signal (z-score) [4]: -0.51 | glycan array binding signal (z-score) [5]: -0.396 | glycan array binding signal (z-score) [6]: -0.594 | glycan array binding signal (z-score) [7]: -0.517 | glycan array binding signal (z-score) [8]: -0.221 | glycan array binding signal (z-score) [9]: -0.494 | glycan array binding signal (z-score) [10]: 0.292 | glycan array binding signal (z-score) [11]: -0.109 | glycan array binding signal (z-score) [12]: -0.088 | glycan array binding signal (z-score) [13]: 0.104 | glycan array binding signal (z-score) [14]: -0.225 | glycan array binding signal (z-score) [15]: -0.053 | glycan array binding signal (z-score) (Neu5Ac(a2-3)Gal(b1-4)Glc): -0.326 | glycan array binding signal (z-score) [16]: 0.284 | glycan array binding signal (z-score) [17]: -0.674 | glycan array binding signal (z-score) [18]: 0.231 | glycan array binding signal (z-score) [19]: -0.186 | glycan array binding signal (z-score) [20]: -0.566 | glycan array binding signal (z-score) [21]: -0.347 | glycan array binding signal (z-score) [22]: -0.415 | glycan array binding signal (z-score) [23]: -0.453 | glycan array binding signal (z-score) [24]: -0.364 | glycan array binding signal (z-score) [25]: -0.614 | glycan array binding signal (z-score) [26]: -0.431 | glycan array binding signal (z-score) [27]: -0.138 | glycan array binding signal (z-score) [28]: -0.092 | glycan array binding signal (z-score) [29]: -0.591 | glycan array binding signal (z-score) [30]: -0.211 | glycan array binding signal (z-score) [31]: -0.027 | glycan array binding signal (z-score) [32]: -0.563 | glycan array binding signal (z-score) [33]: -0.413 | glycan array binding signal (z-score) (Neu5Ac(a2-3)GalNAc): -0.606 | glycan array binding signal (z-score) [34]: 0.055 | glycan array binding signal (z-score) [35]: -0.477 | glycan array binding signal (z-score) [36]: -0.46 | glycan array binding signal (z-score) [37]: -0.512 | glycan array binding signal (z-score) (Neu5Ac(a2-6)Gal): -0.619 | glycan array binding signal (z-score) (Neu5Ac(a2-6)Gal(b1-4)Glc): 0.226 | glycan array binding signal (z-score) [38]: -0.158
